# In the BET-seq Pho4 binding data (Le et al. 2018):
# This is one part of the list. These are noisy estimates, calculated here from bound and input reads.
# Target: T1, Pho4 (S. cerevisiae) (UniProt P07270)
# T1 sequence: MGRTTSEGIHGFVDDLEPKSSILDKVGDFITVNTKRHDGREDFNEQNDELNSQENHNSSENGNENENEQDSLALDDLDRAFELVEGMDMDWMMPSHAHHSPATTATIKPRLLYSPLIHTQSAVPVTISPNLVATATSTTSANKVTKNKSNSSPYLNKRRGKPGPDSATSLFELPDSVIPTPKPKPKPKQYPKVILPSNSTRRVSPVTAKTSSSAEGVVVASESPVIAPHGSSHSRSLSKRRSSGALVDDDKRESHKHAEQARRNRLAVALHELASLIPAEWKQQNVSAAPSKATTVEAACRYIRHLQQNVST
# Test: relative binding free energy (BET-seq); higher = weaker binding
# Conditions: reference: library average
row,Sequence,relative binding free energy [kcal/mol]
1,TGAGGCACGTGGGTCG,-0.19
2,ATGGTCACGTGCGGCG,-0.01
3,GGCTACACGTGATGTG,0.29
4,GGGTCCACGTGTTGGG,0.16
5,GGGAACACGTGTAGGG,0.03
6,TCGTTCACGTGGCGTG,0.2
7,AGATTCACGTGAATTT,0.36
8,TTGCGCACGTGGCTGG,-0.22
9,TGGGGCACGTGATATG,-0.08
10,CGGTTCACGTGTGGGT,0.35
11,CTGGGCACGTGATGTG,-0.03
12,GGTCTCACGTGTTGAG,0.24
13,TAGTGCACGTGAGACT,0.2
14,GTGCACACGTGAGTGG,0.33
15,TGGAACACGTGAGGAA,0.32
16,CTTTGCACGTGTAAGT,0.15
17,AAATTCACGTGTTAGG,0.15
18,CGAGGCACGTGGTGGG,-0.16
19,CTTTACACGTGTTGAT,-0.06
20,CAATTCACGTGTGGGC,0.34
21,GACGGCACGTGTCGGG,0.01
22,TTGTACACGTGCGTCT,0.03
23,TTTTTCACGTGAGGGT,0.49
24,GTGGGCACGTGTCTTT,-0.09
25,TAGTGCACGTGATATA,0.05
26,TTATTCACGTGAGCGG,0.26

row,Sequence,relative binding free energy [kcal/mol]
1,TAGTCCACGTGTTTGT,-0.02
2,TTCTCCACGTGTGGTT,-0.04
3,GTGGCCACGTGTGGTC,0.06
4,AAGGACACGTGAGTGG,0.22
5,ACGGACACGTGATGGG,0.17
6,CTAATCACGTGTGTTT,-0.02
7,TTGAGCACGTGGTCAT,-0.11
8,GATAGCACGTGATGGC,0.14
9,CGGTACACGTGTAGTT,0.05
10,TTTCGCACGTGTTGCA,0.03
11,TGTCACACGTGGTAGG,-0.12
12,TCGAACACGTGGTTGG,0.06
13,CTATTCACGTGGAATT,0.33
14,GTTAGCACGTGGTCAG,-0.13
15,CTTGGCACGTGGCACG,-0.04
16,GGATACACGTGTATAT,0.05
17,AAATGCACGTGGTGAG,-0.02
18,TGCGGCACGTGGGTTT,-0.19
19,GGTGTCACGTGCGGCA,-0.04
20,ATTATCACGTGAATAT,0.26
21,AGGTCCACGTGTTTTA,-0.01
22,TGGGGCACGTGCTGAG,-0.25
23,TGTTGCACGTGAGAGG,0.24
24,TTTCTCACGTGCGTTA,0.25
25,GACGGCACGTGGTGTA,-0.12
26,ATAGGCACGTGGGCCT,-0.22

row,Sequence,relative binding free energy [kcal/mol]
1,AGTTTCACGTGAGTGT,0.37
2,AGTGTCACGTGATAGG,0.21
3,AGGTGCACGTGGTAGG,-0.09
4,TCAGTCACGTGAGGCT,0.23
5,GGGATCACGTGGTAAT,0.1
6,ATGAGCACGTGATGGA,-0.03
7,ACGAGCACGTGGGTAG,-0.2
8,TCGTGCACGTGGTAAT,-0.15
9,AGGTTCACGTGCGAGT,0.23
10,TTTTACACGTGGAAGA,0.27
11,GTGGACACGTGGCGTA,0.01
12,GTAGTCACGTGGGACA,0.03
13,ATGGGCACGTGTGTGG,-0.01
14,GCGCTCACGTGATGGG,0.37
15,GATAGCACGTGAGGAG,0.36
16,GATAGCACGTGGTGGC,-0.09
17,AGGTGCACGTGATTAG,0.02
18,TGTCGCACGTGTGATT,-0.02
19,GTTAGCACGTGGCTTA,-0.17
20,CGTGGCACGTGTGTAA,-0.03
21,AGTTGCACGTGTCTTG,0.16
22,GGTTTCACGTGAGCTA,0.42
23,CCGTGCACGTGCGTGG,0.01
24,CAGTGCACGTGCTGTG,-0.1
25,GAGCGCACGTGTTTGG,-0.05
26,CAGTACACGTGTCGGG,0.18

row,Sequence,relative binding free energy [kcal/mol]
1,GGATCCACGTGTAAGG,0.18
2,TTGTTCACGTGCGTGT,0.25
3,ATGGTCACGTGCGCTT,0.09
4,TGATGCACGTGCTTTC,0.19
5,TTTATCACGTGAAGAG,0.38
6,TTCATCACGTGTGTTT,0.37
7,AGGTACACGTGGAAAA,0.33
8,GAGATCACGTGAAGTG,0.27
9,TTTTTCACGTGGCAAA,0.25
10,ATATACACGTGTGAGG,0.06
11,GGATGCACGTGTGCCG,0.04
12,ATGCGCACGTGGGGAA,-0.28
13,ATTTCCACGTGTGTTT,0.03
14,TGAATCACGTGTGTTT,0.21
15,GTGTGCACGTGGCGTC,-0.07
16,TTCTTCACGTGGCGGT,0.15
17,TTGTCCACGTGGTGTT,-0.02
18,TCGCGCACGTGTGGAG,-0.05
19,TTGCCCACGTGGTATG,-0.12
20,AGGGTCACGTGGAGAT,0.07
21,ATAGTCACGTGTCTAG,0.17
22,GATTCCACGTGTGTTA,0.22
23,ATAGGCACGTGGAGGT,-0.09
24,TTTGGCACGTGGTTTA,-0.19
25,GATATCACGTGTTTGA,0.14
26,TAAATCACGTGGTGGC,0.18

row,Sequence,relative binding free energy [kcal/mol]
1,AGTTGCACGTGGTTTT,-0.06
2,CGGGTCACGTGTACAG,0.23
3,GTTTTCACGTGCTGTA,0.2
4,TGGTTCACGTGACGTT,0.32
5,AAGTGCACGTGTGATG,0.16
6,TTAACCACGTGTGTAG,0.01
7,TCTAGCACGTGGGATT,-0.19
8,AGGGACACGTGAGCAG,0.25
9,AGTAGCACGTGTCTAG,-0.08
10,GGGGTCACGTGCGGAC,0.12
11,GCGACCACGTGTGGGG,0.05
12,TAGGGCACGTGGGCAT,-0.15
13,GGAATCACGTGGAGGG,0.14
14,GGAGACACGTGTGGCT,0.17
15,GTGGTCACGTGTACGT,0.29
16,CGGGGCACGTGGTCTG,-0.36
17,TTACGCACGTGGGTAT,-0.31
18,GATTGCACGTGAGTGG,0.28
19,AGCCGCACGTGTGGTG,0.02
20,ATCTGCACGTGGAAAG,0.29
21,GGAAGCACGTGGAGCG,-0.22
22,GGGTTCACGTGTTGCT,0.31
23,TATTCCACGTGTTAGG,0.03
24,TATGCCACGTGGTGGT,-0.23
25,ACTAGCACGTGATGTT,-0.01
26,TAGGGCACGTGCGTAG,-0.19

row,Sequence,relative binding free energy [kcal/mol]
1,GGCGCCACGTGGGGGA,-0.25
2,CGAGGCACGTGGAGGT,-0.08
3,TCATACACGTGGGGTT,-0.11
4,TTAATCACGTGGATAA,0.19
5,CTTTACACGTGGGAGG,-0.1
6,TCATTCACGTGATGTT,0.18
7,CTGGACACGTGTTAGG,0.12
8,CGGTTCACGTGATGAG,0.24
9,TTTTTCACGTGGAGCA,0.14
10,TTATGCACGTGTTATT,0.05
11,GCGTTCACGTGATGGC,0.46
12,AATTTCACGTGATGAA,0.34
13,TTGGTCACGTGGAATT,0.23
14,GCTGGCACGTGCGTAG,0.04
15,GGCGGCACGTGGTCTT,-0.07
16,TGTATCACGTGGGTAT,-0.04
17,CGGGACACGTGCGGGG,-0.23
18,GAGCGCACGTGGGGTA,-0.13
19,GTATACACGTGTGTCA,0.01
20,ATTTTCACGTGGTGTT,0.24
21,TCTGTCACGTGAGTAA,0.21
22,AGGGACACGTGGGCTT,-0.06
23,TTGCTCACGTGTAGGG,0.23
24,TGCATCACGTGAGCGG,0.42
25,GAATTCACGTGGCAGT,0.35
26,TCTTGCACGTGTTGGG,0.02

row,Sequence,relative binding free energy [kcal/mol]
1,GGTATCACGTGTGTTA,0.24
2,TAAGGCACGTGCTGGA,-0.2
3,TTAGACACGTGGGTAA,0.01
4,CGGAACACGTGTATGT,0.14
5,AAGGTCACGTGTACTG,0.09
6,TTCTTCACGTGTGTGC,0.31
7,GGGTGCACGTGGCACG,-0.2
8,CATTGCACGTGGCGTG,-0.07
9,GGCGCCACGTGATGGT,0
10,GAAGTCACGTGGTGGG,0.13
11,ACGGTCACGTGGTTGG,0
12,ATACGCACGTGGGGGG,-0.35
13,TAAGTCACGTGAGTGA,0.26
14,ATGTGCACGTGGAGCG,0.11
15,AAGGTCACGTGTAAAG,0.3
16,ATGGTCACGTGGGATT,0.16
17,ATGGACACGTGGCTTT,-0.07
18,CGGATCACGTGGGGGA,0.05
19,GGAGGCACGTGATGGC,-0.03
20,ATGGACACGTGTAGGA,-0.02
21,ATATTCACGTGCGTGT,0.09
22,TTTAGCACGTGGCGTT,-0.14
23,TTATACACGTGTTTGA,0
24,TAACGCACGTGGTTTA,-0.18
25,GGTTTCACGTGTGTAA,0.37
26,TAGATCACGTGGTAAT,0.19

row,Sequence,relative binding free energy [kcal/mol]
1,GTGTTCACGTGGCGGA,0.13
2,GAATGCACGTGGTATT,0.08
3,TTTGACACGTGTGAGT,0.04
4,AGTCGCACGTGGTCGG,-0.12
5,CTGAGCACGTGGGGAT,-0.19
6,TTTCTCACGTGCAGGG,0.28
7,TGCGACACGTGGTTAG,-0.04
8,TTTGTCACGTGCTGTC,0.09
9,TGGTTCACGTGTTGAT,0.36
10,GTTAGCACGTGGGTCG,-0.14
11,AACATCACGTGAATGG,0.47
12,TGAGACACGTGTGTAA,0.07
13,TTTCGCACGTGTGTCG,0.05
14,GTAGCCACGTGTTGGT,-0.01
15,TGTAGCACGTGATGGC,0.18
16,AGGAGCACGTGAAGGT,0.13
17,AAAAGCACGTGTGATT,0.1
18,GTCGACACGTGTGGGC,0.08
19,TCTGTCACGTGTTAAG,0.18
20,GAGGTCACGTGTTTTG,0.25
21,TAGGGCACGTGTTAAA,-0.07
22,GGTTTCACGTGGTGAC,0.37
23,GGTGGCACGTGGAATA,0.11
24,AGAGCCACGTGGAGTG,-0.07
25,GATGACACGTGGAGCG,0.22
26,AATATCACGTGTTTAG,0.09

row,Sequence,relative binding free energy [kcal/mol]
1,GTAGGCACGTGCTGAG,-0.13
2,TGATTCACGTGTGGTG,0.25
3,TAGGTCACGTGAAAGC,0.45
4,GAAGACACGTGGTGGA,-0.08
5,TGAGACACGTGGGAAG,-0.11
6,GATAGCACGTGGGTGG,-0.08
7,GAATTCACGTGGGTGT,0.29
8,GGGGTCACGTGTGGAA,0.22
9,TGGAGCACGTGAGTGG,0.12
10,AGAATCACGTGGAATT,0.47
11,TTTTGCACGTGGCAAT,-0.15
12,AACAGCACGTGGGTGT,-0.34
13,AGCTACACGTGGGGGC,0
14,AATGCCACGTGTAGGT,-0.11
15,GAGAACACGTGTGGGA,0.12
16,GTTTGCACGTGACTGG,0.22
17,GCCTGCACGTGTGTTT,0.18
18,AGGAACACGTGGAGTT,-0.01
19,TTAGACACGTGGGGGC,-0.13
20,TGGGTCACGTGTGCGT,0.16
21,GTACTCACGTGCAGGT,0.34
22,GATTGCACGTGGTTGC,-0.02
